Data on nine variants can be found in the supplement of paper PMC12217912.

The other results are listed elsewhere or left out. Sequences were assembled here from the parent chain. Values near 0.05 are background.

Sequences and labels used below:
B1: TEV protease; numbered along this chain (parent)
chain: MGESLFKGPRDYNPISSSICHLTNESDGHTTSLYGIGFGPFIITNKHLFRRNNGTLVVQSLHGVFKVKDTTTLQQHLVDGRDMIIIRMPKDFPPFPQKLKFREPQREERICLVTTNFQTKSMSSMVSDTSCTFPSGDGIFWKHWIQTKDGQCGSPLVSTRDGFIVGIHSASNFTNTNNYFTSVPKNFMELLTNQEAQQWVSGWRLNADSVLWGGHKVFMVKPEEPFQPVKEATQL

In this assay the parent is B1. Kind of assay: raw area under fraction-flipped curve 0-4 h after induction (AUC4h, not background-subtracted), DNA-recorder readout of cleavage of the substrate (dimensionless); higher = more cleavage of the substrate by the protease variant. The note with it: temperature: 34 °C; time window: 0-4 h after rhamnose induction.
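Further: Bxb1 expression induced with 0.2% (w/v) L-rhamnose at OD600 near 0.5, cultures sampled hourly, flipped fraction per protease–substrate barcode pair counted by paired-end Illumina sequencing.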

With MGESLFKGPRDYNPISSSICHLTNESDGHTTSLYGIGFGPFIITNKHLFRRNNGTLVVQSLHGVFKVKDTTTLQQHLVDGRDMIIIRMPKDFPPFPQKLKFREPQREERICLVTTNFQTKSMSSMVSDTSCTFPSGDGIFWKHWIQTKDGQCGSPLVSTRDGFIVGIHSASNFTNTNNYFTSVPKNFMELLTNQEAQQWVSGWRLNADSVLWGGHKVFMVKPEEPFQPVVEATQL [K230V], the “area with substrate ANLYFQS” value stood at 0.0618, the “area with substrate CNLYFQS” value amounted to 0.0874, the “area with substrate DNLYFQS” value is 0.0799 and the “area with substrate FNLYFQS” value came out at 0.0707. In addition, the “area with substrate GNLYFQS” value is 0.0674, the “area with substrate HNLYFQS” value was 0.0536, the “area with substrate KNLYFQS” value was 0.0643 and the “area with substrate LNLYFQS” value came out at 0.0717. For the same variant, the “area with substrate NNLYFQS” value came to 0.0708, the “area with substrate QNLYFQS” value was 0.0693, the “area with substrate SNLYFQS” value worked out at 0.056 and the “area with substrate WNLYFQS” value was 0.058. Besides, the “area with substrate YNLYFQS” value is 0.0595.

For the variant MGESLFKGPRDYNPISSSICHLTNESDGHTTSLYGIGFGPFIITNKHLFRRNNGTLVVQSLHGVFKVKDTTTLQQHLVDGRDMIIIRMPKDFPPFPQKLKFREPQREERICLVTTNFQTKSMSSMVSDTSCTFPSGDGIFWKHWIQTKDGQCGSPLVSTRDGFIVGIHSASNFTNTNNYFTSVPKNFMELLTNQEAQQWVSGWRLNADSVLWGGHKVFMVKPEEPFQPVEEATQL [K230E], the “area with substrate ANLYFQS” value came out at 0.0455, the “area with substrate CNLYFQS” value was 0.0628, the “area with substrate DNLYFQS” value was determined as 0.0798 and the “area with substrate FNLYFQS” value is 0.0598. The “area with substrate GNLYFQS” value turned out to be 0.0692, the “area with substrate HNLYFQS” value is 0.0669, the “area with substrate INLYFQS” value amounted to 0.0627 and the “area with substrate KNLYFQS” value amounted to 0.0669. The “area with substrate MNLYFQS” value worked out at 0.0646, the “area with substrate VNLYFQS” value stood at 0.0713, the “area with substrate WNLYFQS” value turned out to be 0.0606 and the “area with substrate YNLYFQS” value came to 0.0583.

Consider MGESLFKGPRDYNPISSSICHLTNESDGHTTSLYGIGFGPFIITNKHLFRRNNGTLVVQSLHGVFKVKDTTTLQQHLVDGRDMIIIRMPKDFPPFPQKLKFREPQREERICLVTTNFQTKSMSSMVSDTSCTFPSGDGIFWKHWIQTKDGQCGSPLVSTRDGFIVGIHSASNFTNTNNYFTSVPKNFMELLTNQEAQQWVSGWRLNADSVLWGGHKVFMVKPEEPFQPVMEATQL [K230M], for which the “area with substrate ANLYFQS” value is 0.0684, the “area with substrate CNLYFQS” value was determined as 0.0632, the “area with substrate DNLYFQS” value came to 0.0648 and the “area with substrate FNLYFQS” value turned out to be 0.0477. Besides, the “area with substrate HNLYFQS” value turned out to be 0.0674, the “area with substrate KNLYFQS” value is 0.0478, the “area with substrate LNLYFQS” value was determined as 0.0651 and the “area with substrate MNLYFQS” value worked out at 0.0682. The “area with substrate NNLYFQS” value stood at 0.0613, the “area with substrate PNLYFQS” value stood at 0.0682, the “area with substrate SNLYFQS” value stood at 0.0588 and the “area with substrate TNLYFQS” value stood at 0.0771. Also, the “area with substrate WNLYFQS” value worked out at 0.0584.

With MGESLFKGPRDYNPISSSICHLTNESDGHTTSLYGIGFGPFIITNKHLFRRNNGTLVVQSLHGVFKVKDTTTLQQHLVDGRDMIIIRMPKDFPPFPQKLKFREPQREERICLVTTNFQTKSMSSMVSDTSCTFPSGDGIFWKHWIQTKDGQCGSPLVSTRDGFIVGIHSASNFTNTNNYFTSVPKNFMELLTNQEAQQWVSGWRLNADSVLWGGHKVFMVKPEEPFQPVKTATQL [E231T], the “area with substrate ANLYFQS” value was determined as 0.0796, the “area with substrate CNLYFQS” value amounted to 0.0713, the “area with substrate DNLYFQS” value turned out to be 0.0814 and the “area with substrate GNLYFQS” value was 0.0618. Further, the “area with substrate HNLYFQS” value is 0.0682, the “area with substrate KNLYFQS” value came to 0.0693, the “area with substrate LNLYFQS” value came out at 0.0749 and the “area with substrate NNLYFQS” value came out at 0.0708. Further, the “area with substrate PNLYFQS” value is 0.0667, the “area with substrate TNLYFQS” value was 0.07, the “area with substrate VNLYFQS” value was 0.0734 and the “area with substrate WNLYFQS” value is 0.0475.

Turning to MGESLFKGPRDYNPISSSICHLTNESDGHTTSLYGIGFGPFIITNKHLFRRNNGTLVVQSLHGVFKVKDTTTLQQHLVDGRDMIIIRMPKDFPPFPQKLKFREPQREERICLVTTNFQTKSMSSMVSDTSCTFPSGDGIFWKHWIQTKDGQCGSPLVSTRDGFIVGIHSASNFTNTNNYFTSVPKNFMELLTNQEAQQWVSGWRLNADSVLWGGHKVFMVKPEEPFQPVKHATQL [E231H], the “area with substrate ANLYFQS” value worked out at 0.0567, the “area with substrate CNLYFQS” value was determined as 0.0911, the “area with substrate DNLYFQS” value came out at 0.07 and the “area with substrate HNLYFQS” value is 0.0573. Moreover, the “area with substrate LNLYFQS” value was found to be 0.077, the “area with substrate MNLYFQS” value came out at 0.0538, the “area with substrate PNLYFQS” value came to 0.0734 and the “area with substrate QNLYFQS” value was 0.0553. Moreover, the “area with substrate SNLYFQS” value amounted to 0.078, the “area with substrate TNLYFQS” value came to 0.057 and the “area with substrate WNLYFQS” value worked out at 0.0623.

As to MGESLFKGPRDYNPISSSICHLTNESDGHTTSLYGIGFGPFIITNKHLFRRNNGTLVVQSLHGVFKVKDTTTLQQHLVDGRDMIIIRMPKDFPPFPQKLKFREPQREERICLVTTNFQTKSMSSMVSDTSCTFPSGDGIFWKHWIQTKDGQCGSPLVSTRDGFIVGIHSASNFTNTNNYFTSVPKNFMELLTNQEAQQWVSGWRLNADSVLWGGHKVFVVKPEEPFQPVKEATQL [M219V], the “area with substrate ANLYFQS” value is 0.0593, the “area with substrate CNLYFQS” value stood at 0.0606, the “area with substrate DNLYFQS” value was 0.0787 and the “area with substrate FNLYFQS” value is 0.0708. Besides, the “area with substrate GNLYFQS” value came out at 0.073, the “area with substrate HNLYFQS” value is 0.0716, the “area with substrate INLYFQS” value came out at 0.047 and the “area with substrate KNLYFQS” value was found to be 0.0667. In addition, the “area with substrate LNLYFQS” value is 0.0343, the “area with substrate MNLYFQS” value was found to be 0.0572, the “area with substrate NNLYFQS” value came to 0.0661 and the “area with substrate PNLYFQS” value stood at 0.066. In addition, the “area with substrate RNLYFQS” value amounted to 0.0477, the “area with substrate SNLYFQS” value was 0.085, the “area with substrate TNLYFQS” value is 0.0626 and the “area with substrate WNLYFQS” value worked out at 0.0528. The “area with substrate YNLYFQS” value is 0.0593.

MGESLFKGPRDYNPISSSICHLTNESDGHTTSLYGIGFGPFIITNKHLFRRNNGTLVVQSLHGVFKVKDTTTLQQHLVDGRDMIIIRMPKDFPPFPQKLKFREPQREERICLVTTNFQTKSMSSMVSDTSCTFPSGDGIFWKHWIQTKDGQCGSPLVSTRDGFIVGIHSASNFTNTNNYFTSVPKNFMELLTNQEAQQWVSGWRLNADSVLWGGHKVFMVKSEEPFQPVKEATQL [P222S]: the “area with substrate ANLYFQS” value came out at 0.0587, the “area with substrate CNLYFQS” value amounted to 0.052, the “area with substrate DNLYFQS” value was 0.0489 and the “area with substrate HNLYFQS” value was 0.0667. Moreover, the “area with substrate INLYFQS” value stood at 0.0473, the “area with substrate LNLYFQS” value turned out to be 0.0693, the “area with substrate MNLYFQS” value was found to be 0.0661 and the “area with substrate PNLYFQS” value is 0.0698. The “area with substrate QNLYFQS” value turned out to be 0.0648, the “area with substrate RNLYFQS” value came to 0.0596, the “area with substrate SNLYFQS” value came out at 0.0583 and the “area with substrate TNLYFQS” value came to 0.057. Also, the “area with substrate WNLYFQS” value came out at 0.0573.

MGESLFKGPRDYNPISSSICHLTNESDGHTTSLYGIGFGPFIITNKHLFRRNNGTLVVQSLHGVFKVKDTTTLQQHLVDGRDMIIIRMPKDFPPFPQKLKFREPQREERICLVTTNFQTKSMSSMVSDTSCTFPSGDGIFWKHWIQTKDGQCGSPLVSTRDGFIVGIHSASNFTNTNNYFTSVPKNFMELLTNQEAQQWVSGWRLNADSVLWGGHKVFMVKCEEPFQPVKEATQL [P222C]: the “area with substrate ANLYFQS” value stood at 0.066, the “area with substrate CNLYFQS” value is 0.0989, the “area with substrate DNLYFQS” value worked out at 0.0677 and the “area with substrate FNLYFQS” value stood at 0.0645. For the same variant, the “area with substrate GNLYFQS” value came out at 0.0689, the “area with substrate HNLYFQS” value turned out to be 0.0576, the “area with substrate INLYFQS” value turned out to be 0.0712 and the “area with substrate KNLYFQS” value is 0.068. Besides, the “area with substrate LNLYFQS” value turned out to be 0.0599, the “area with substrate MNLYFQS” value amounted to 0.0402, the “area with substrate PNLYFQS” value is 0.0587 and the “area with substrate SNLYFQS” value is 0.0938. Also, the “area with substrate TNLYFQS” value came out at 0.0617, the “area with substrate VNLYFQS” value was found to be 0.0643, the “area with substrate WNLYFQS” value came out at 0.0704 and the “area with substrate YNLYFQS” value is 0.0698.

On to MGESLFKGPRDYNPISSSICHLTNESDGHTTSLYGIGFGPFIITNKHLFRRNNGTLVVQSLHGVFKVKDTTTLQQHLVDGRDMIIIRMPKDFPPFPQKLKFREPQREERICLVTTNFQTKSMSSMVSDTSCTFPSGDGIFWKHWIQTKDGQCGSPLVSTRDGFIVGIHSASNFTNTNNYFTSVPKNFMELLTNQEAQQWVSGWRLNADSVLWGGHKVFMVKPEEPFIPVKEATQL [Q227I], for which the “area with substrate ANLYFQS” value is 0.0756, the “area with substrate CNLYFQS” value amounted to 0.0587, the “area with substrate DNLYFQS” value amounted to 0.0769 and the “area with substrate FNLYFQS” value worked out at 0.0669. For the same variant, the “area with substrate HNLYFQS” value came out at 0.0735, the “area with substrate INLYFQS” value amounted to 0.093, the “area with substrate KNLYFQS” value worked out at 0.0597 and the “area with substrate MNLYFQS” value worked out at 0.0564. Besides, the “area with substrate NNLYFQS” value was determined as 0.0691, the “area with substrate VNLYFQS” value amounted to 0.0592 and the “area with substrate WNLYFQS” value was 0.0811.
